Assay results taken from PubChem BioAssay AID1030 (National Center for Advancing Translational Sciences (NCATS), 2008).
Where “and” joins values, the source holds several entries; their conditions need not be identical. Identical values can stand only once. About 16,000 (7.3%) of roughly 220,000 compounds were called active. Inconclusive results, whose numbers are uncertain, are shown with a selection of clear calls. Calls come from the whole dose curve; as a rule, active = well fitted inhibition curve with a large enough effect (not every such curve was filed as active); inconclusive = small, poorly fitted or top-dose-only effect, or another doubt; inactive = no such curve, though single readings can be large or run the other way. Potencies beside an inconclusive call are fits to weak or partial responses and may not hold up.

Target: Aldehyde dehydrogenase 1A1 (Homo sapiens) (UniProt P00352)
Experiment: qHTS Assay for Inhibitors of Aldehyde Dehydrogenase 1 (ALDH1A1);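 for activity, negative = inhibition: plate controls were no enzyme wells and a reference inhibitor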
Settings: Purified ALDH1A1, NADH fluorescence, propionaldehyde substrate; series mostly up to 75.3 µM; activity, negative = inhibition: at the top concentration
Potency is the fitted concentration of half-maximal effect; tags give direction and shape of the fitted curve.

Chain of UniProt P00352 (P00352 whole entry, looked up): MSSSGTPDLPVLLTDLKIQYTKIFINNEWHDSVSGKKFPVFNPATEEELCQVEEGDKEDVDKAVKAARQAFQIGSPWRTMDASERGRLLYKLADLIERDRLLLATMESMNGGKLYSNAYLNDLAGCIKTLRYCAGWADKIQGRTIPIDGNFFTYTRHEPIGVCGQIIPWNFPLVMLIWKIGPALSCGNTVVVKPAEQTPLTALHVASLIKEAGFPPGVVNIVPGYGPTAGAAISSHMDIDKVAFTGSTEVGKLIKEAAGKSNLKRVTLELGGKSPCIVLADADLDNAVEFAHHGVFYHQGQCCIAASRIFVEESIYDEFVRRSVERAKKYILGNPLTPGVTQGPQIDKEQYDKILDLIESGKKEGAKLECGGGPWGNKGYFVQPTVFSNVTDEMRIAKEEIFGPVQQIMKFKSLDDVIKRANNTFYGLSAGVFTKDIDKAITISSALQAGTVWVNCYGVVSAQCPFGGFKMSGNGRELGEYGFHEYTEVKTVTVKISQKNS

| Compound | Potency | activity, negative = inhibition |
| --- | --- | --- |
| C=CCN1C(=O)/C(=C/c2ccc(O)c(OC)c2)S/C1=N/c1nccs1 | active: 1 µM | – |
| CCOCCCNc1nc2c(C)cccn2c(=O)c1/C=C1\SC(=S)N(CC(C)C)C1=O | inconclusive: 0.158 µM [inhibitor, full curve] | – |
| Cc1ccc(N2C(=O)CN(Cc3sccc3C)C2=S)cc1C | inconclusive: 35.5 µM [inhibitor, single point] | – |
| NS(=O)(=O)c1cc2c(cc1Cl)NC(C1C[C@H]3C=C[C@@H]1C3)NS2(=O)=O (stereo partly specified) | – | inactive: 1.51% |
| Cc1ccccc1-n1c(C)nc2ccccc21 | – | inactive: -1.79% |
| O=C(NCc1ccccc1)C1CC(=O)N(c2ccc(OCC(=O)N3CCCC3)cc2)C1 (stereo unspecified) | – | inactive: 9.97% |
| C=CCSc1nnc(-c2cc3c(s2)-c2ccccc2CC3)o1 | inconclusive: 12.6 µM [inhibitor, partial curve] | – |
| COc1cc2c(cc1OC)CN(Cc1cc(=O)oc3cc(C)c(C)cc13)CC2 | inconclusive: 35.5 µM [inhibitor, single point] | – |
| COc1cccc(CC2(CO)CCCN(Cc3cc(F)ccc3-n3cccn3)C2)c1 (stereo unspecified) | – | inactive: 1.36% |
| COc1nc(Cl)cn(-c2ccc(C)cc2)c1=O | inconclusive: 39.8 µM [inhibitor, single point] | – |
| C=CCn1c(SCC(=O)NC2CCCCC2)nnc1-c1sc(N)nc1C | – | inactive: -11.3% |
| O=C(Nc1nc2c(s1)CN(Cc1ccccc1)CC2)C1CCC1 | inconclusive: 31.6 µM [inhibitor, single point] | – |
| NCCSS(=O)(=O)CCN | inconclusive: 8.91 µM [inhibitor, single point] | – |
| Cc1ccc(-n2nc3cc(C)c(NC(=S)NC(=O)/C=C/c4ccco4)cc3n2)cc1 | – | inactive: -6.74% |
| C/C(CC(=O)NC(C)C)=N\NC(=O)C(c1ccccc1)c1ccccc1 | inconclusive: 3.55 µM [inhibitor, full curve] | – |
| COc1ccccc1[C@H]1C(c2ccc(F)cc2)=NN(c2ccccc2)[C@@H]1CO | inconclusive: 35.5 µM [inhibitor, partial curve] | – |
| CCOC(=O)C/C(N)=N/NC(=O)c1ccc(Cl)cc1Cl | – | inactive: 2.2% |
| COC(=O)c1nn(-c2ccccc2)c(Sc2ccc(C)cc2)c1/C=N/O | inconclusive: 39.8 µM [inhibitor, single point] | – |
| CC(C)N1C(=S)N(Cc2ccco2)C(=O)C1CC(=O)Nc1ccccc1 (stereo unspecified) | inconclusive: 39.8 µM [inhibitor, single point] | – |
| Cc1nn(C(C)C(=O)Nc2sc3c(c2C#N)CCCC3)c(C)c1[N+](=O)[O-] (stereo unspecified) | – | inactive: -10.2% |
| COC(=O)C(C)Sc1nc2c([nH]c3ccccc32)c(=O)n1C (stereo unspecified) | inconclusive: 39.8 µM [inhibitor, single point] | – |
| Cc1cc(C)nc(NN2C(=O)/C(=C/c3ccccc3)SC2=S)n1 | inconclusive: 25.1 µM [inhibitor, single point] | – |
| N#Cc1cc2sc3nc4ccccc4n3c2cc1C#N | – | inactive: -0.45% |
| Cc1ccccc1C(=O)NNC(=O)CSc1nnc(-c2ccncc2)n1-c1ccccc1 | – | inactive: 6.77% |
| COc1cccc(-c2cncnc2NCCc2c[nH]c3ccc(OC)cc23)c1 | inconclusive: 18.9 µM [inhibitor, partial curve, poor fit] | – |
| CCC1C(=O)C[C@H]2CCN3C(=O)CCCC1C23 (stereo partly specified) | – | inactive: -1.94% [at 120 µM] |

| Compound | Potency | activity, negative = inhibition |
| --- | --- | --- |
| CCCC(=O)Nc1ccc2oc(=O)ccc2c1 | inconclusive: 28.2 µM [inhibitor, partial curve] | – |
| COc1ccc2nc(Nc3ccccc3OC)sc2c1 | – | inactive: -5.13% |
| Cc1ccc(S(=O)(=O)NCCN=C(CN2CCOCC2)NS(=O)(=O)c2ccc(C)cc2)cc1 | active: 1.58 µM | – |
| CCOC(=O)c1cnc(SC2CC(=O)N(c3ccc(OC)c(OC)c3)C2=O)nc1N (stereo unspecified) | inconclusive: 39.8 µM [inhibitor, single point] | – |
| COc1ccc2[nH]c(=O)c(CN(CCc3ccccc3)Cc3nnnn3CC3CCCO3)cc2c1 (stereo unspecified) | inconclusive: 22.4 µM [inhibitor, partial curve] | – |
| CCCn1c(SCc2ccccc2)nc2c1c(=O)[nH]c(=O)n2C | inconclusive: 39.8 µM [inhibitor, single point] | – |
| CN(C)S(=O)(=O)c1ccc(C(=O)Nc2nc(-c3cccs3)cs2)cc1 | – | inactive: 162% |
| Cc1[nH]n(-c2ccccc2)c(=O)c1N=O | – | inactive: -7.09% |
| CC1(C)CC(C)(O)N(Cc2ccccc2)C(=S)N1 (stereo unspecified) | – | inactive: 6.39% |
| CC(C)Nc1ncnc2c1cnn2-c1ccc(Cl)cc1 | – | inactive: -2.35% |
| CCc1[nH]c(=O)c(C#N)c2c1COC(C)(C)C2 | inconclusive: 25.1 µM [inhibitor, partial curve] | – |
| O=C(/C=C/c1ccc(-c2ccccc2[N+](=O)[O-])o1)c1ccccc1 | active: 17.8 µM | – |
| COc1ccc(S(=O)(=O)NC2CCCC2)c(Cl)c1Cl | inconclusive: 22.4 µM [inhibitor, single point] | – |
| CCN(CC)S(=O)(=O)c1ccc(C(=O)NCCSc2c[nH]c3ccccc23)cc1 | inconclusive: 39.8 µM [inhibitor, single point] | – |
| N#CCCN(Cc1cccnc1)C(=S)NCc1ccco1 | active: 17.8 µM | – |
| Cc1ccc(-n2c(SCC(=O)O)nc3sc4c(c3c2=O)CCCC4)cc1 | – | inactive: -1.17% |
| Cc1ccc2cc(CCNC(=O)c3ccc(S(=O)(=O)N4CCCCC4)cc3)c(=O)[nH]c2c1 | active: 14.1 µM | – |
| CN(C)Cc1nc2ccccc2c(=O)n1CC#N | inconclusive: 18.9 µM [inhibitor, single point] | – |
| CCOC(=O)C1=C(C)NC(=O)NC1c1ccc(N2CCC(c3ccccc3)=N2)cc1 (stereo unspecified) | inconclusive: 17.8 µM [inhibitor, partial curve] | – |
| Cc1ccc(C(=O)Cn2c3c(sc2=N)CCCC3)cc1 | inconclusive: 28.2 µM [inhibitor, single point] and inconclusive: 31.6 µM [inhibitor, single point] | – |
| O=S(=O)(c1ccc(-c2csc(-c3cccnc3)n2)cc1)N1CCCC1 | inconclusive: 28.2 µM [inhibitor, single point] | – |
| Cc1ccc(C(=O)OCC(=O)Nc2sccc2C(N)=O)cc1NC(=O)c1ccco1 | – | inactive: -8.44% |
| CCN(CC)S(=O)(=O)c1ccc2oc(SCc3ccc(F)cc3)nc2c1 | inconclusive: 22.4 µM [inhibitor, partial curve, poor fit] | – |
| Cn1c(=O)c2c(nc(CN3CCN(Cc4ccccc4)CC3)n2Cc2ccccc2)n(C)c1=O | – | inactive: 5.3% |
| CO[C@H]1COC(=O)C/C=C\[C@@H](C)COC(=O)[C@H]2CCCN2C(=O)C/C=C\[C@H]1C | – | inactive: 8.22% [at 13.5 µM] |
| CC1CCCN(c2nc3ccsc3c(=O)s2)C1 (stereo unspecified) | inconclusive: 39.8 µM [inhibitor, single point] | – |

| Compound | Potency | activity, negative = inhibition |
| --- | --- | --- |
| CC1CCCCC1NC(=O)COc1ccc(-n2cnnn2)cc1 (stereo unspecified) | inconclusive: 22.4 µM [inhibitor, single point] | – |
| Fc1ccc(N2CCN(Cc3ccccn3)CC2)cc1 | inconclusive: 1 µM [inhibitor, full curve, poor fit] | – |
| O=C(O)/C=C/C(=O)NC1CCC(CC2CCC(NC(=O)/C=C/C(=O)O)CC2)CC1 (stereo unspecified) | – | inactive: -3.68% |
| Cn1c(SCC(=O)N2CCCC2)nnc1-c1ccc(S(=O)(=O)N2CCCC2)cc1 | inconclusive: 35.5 µM [inhibitor, single point] | – |
| Clc1ccc(CSc2ncn[nH]2)cc1 | – | inactive: 8.18% |
| O=C(CCl)NCCN1C(=O)S/C(=C\c2cccnc2)C1=O | active: 1.58 µM | – |
| CCCCn1c(SCC(N)=O)nnc1-c1cc(OC)c(OC)c(OC)c1 | inconclusive: 35.5 µM [inhibitor, single point] | – |
| Cc1c(NC(=O)c2cccc(NC(=O)c3ccco3)c2)cccc1C(=O)O | inconclusive: 39.8 µM [inhibitor, single point] | – |
| CC(C)(C)NC(=O)[C@H]1CC[C@H]2[C@@H]3CC[C@H]4NC(=O)C=C[C@]4(C)[C@H]3CC[C@]12C | – | inactive: -4.08% |
| COc1cccc2cc(C(=O)N(Cc3cccs3)CC3CCCO3)c(=O)oc12 (stereo unspecified) | inconclusive: 20 µM [inhibitor, single point] | – |
| Cc1ccc(NC(=S)N2CCC(c3nc4ccccc4s3)CC2)cc1C | – | inactive: -4.14% |
| CCSC1=N/C(=C/c2ccsc2)C(=O)N1c1ccccc1 | inconclusive: 31.6 µM [inhibitor, single point] | – |
| CNc1nc(-c2ccccc2)cc(C(F)(F)F)c1C#N | inconclusive: 25.1 µM [inhibitor, partial curve] | – |
| O=C(NCc1ccc(/C=c2\sc3n(c2=O)CCN=3)o1)C(=O)Nc1ccccc1 | inconclusive: 12.6 µM [inhibitor, partial curve, poor fit] | – |
| Clc1ccc(OCc2nnc(SCc3nc4ccccc4[nH]3)n2Cc2ccco2)cc1 | – | inactive: 3.37% |
| CCn1ccnc1CN(C)Cc1cn[nH]c1-c1ccc(F)cc1F | – | inactive: 2.1% |
| N[C@]1(C(=O)O)CCc2cc(P(=O)(O)O)ccc21 | – | inactive: -15% |
| O=c1c2c(-c3cccs3)csc2ncn1-c1ccccc1 | inconclusive: 39.8 µM [inhibitor, single point] | – |
| NC(=O)c1cc(-c2ccccc2)sc1NC(=O)CN1CCCCC1 | – | inactive: 6.73% |
| COc1cc(-c2nnc(SCc3c(F)cccc3Cl)o2)cc(OC)c1OC | active: 4.47 µM | – |
| C/C(CC(=O)Nc1cccc(Cl)c1Cl)=N\NC(=O)c1ccccc1N | inconclusive: 28.2 µM [inhibitor, partial curve] | – |
| CCOc1cccc(=O)c2c(C)oc(C)c12 | – | inactive: -14.2% |
| CCOC(=O)c1c(C)nc2c(c1-c1ccccc1)C(=O)c1ccccc1-2 | inconclusive: 25.1 µM [inhibitor, partial curve] | – |
| O=c1[nH]c(-c2ccccc2F)nc2c1sc(=S)n2Cc1ccccc1 | – | inactive: 13.2% |
